Results published in the supplement of paper PMC10126150.
Values marked as one replicate rest on one cluster of the flow cell; about a third of the high ones do not repeat.
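Further: ATP exposure 15 min at 22 °C before imaging.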

Each sequence was assayed on ATP (assay: switch fluorescence ratio, 500 uM ATP over buffer (Cy3 cluster intensity, sum of 5 cycles each) (fold (ratio)); higher = stronger signal-on switching upon ATP binding; sequences stand for … in TCGTCGGCAGCGTCAGATGTGTATAAGAGACAGTTTTTTTTTTTTTTTTTTTTTTTTT…TC). Conditions: aptamer strand: ATP DNA aptamer (quencher-CACCTGGGGGAGTATTGCGGAGGAAGG + anchor), 100 nM annealed; ATP concentration: 500 uM; one replicate.
In short: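 Cy3-labelled switching-strand clusters on a modified Illumina MiSeq flow-cell were annealed to 100 nM quencher-labelled ATP aptamer and imaged first in selection buffer, then after 15 min with 500 uM ATP at 22 °C. NaOH stripping and re-annealing separated each of five buffer/ATP cycles, and clusters outside 100-1000 RFU were excluded. The fluorescence ratio sums target-cycle Cy3 intensity over buffer-cycle Cy3 intensity per cluster and averages it per switch-domain sequence.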
TCATGTACG was tested, and the switch fluorescence ratio was 1.05.
TCATTACCCT gave a switch fluorescence ratio of 1.07.
In the case of TCATTACCTT, the switch fluorescence ratio is reported as 1.13.
Work on TCATTAGGGC yielded a switch fluorescence ratio of 0.957.
With TCATTAGTCA the switch fluorescence ratio was 0.956.
TCATTATGGT was tested, and the switch fluorescence ratio was 1.02.
In the case of TCATTCGACA, the switch fluorescence ratio is reported as 1.06.
TCATTCTCG showed a switch fluorescence ratio of 0.954.
In the case of TCATTGAGAA, the switch fluorescence ratio is reported as 0.974.
Work on TCATTGGATG yielded a switch fluorescence ratio of 0.994.
With TCATTGTGAC the switch fluorescence ratio was 0.961.
TCATTGTTCA showed a switch fluorescence ratio of 0.958.
With TCATTTAACG the switch fluorescence ratio was 0.978.
TCATTTGAAG gave a switch fluorescence ratio of 0.959.
In the case of TCATTTGAGG, the switch fluorescence ratio is reported as 0.939.
TCATTTTATA showed a switch fluorescence ratio of 1.03.
Work on TCATTTTTGA yielded a switch fluorescence ratio of 1.
With TCCAAACGTC the switch fluorescence ratio was 0.89.
Sequence TCCAACCAAG has a switch fluorescence ratio of 1.06.
With TCCAAGCCTA the switch fluorescence ratio was 1.
Sequence TCCAAGTTTT has a switch fluorescence ratio of 1.01.
Sequence TCCAATCGAC has a switch fluorescence ratio of 1.29.
TCCAATGATC was tested, and the switch fluorescence ratio was 1.1.
In the case of TCCAATGTTG, the switch fluorescence ratio is reported as 1.01.
TCCAATTCGG gave a switch fluorescence ratio of 1.
Sequence TCCAATTGCT has a switch fluorescence ratio of 1.05.
In the case of TCCACCAAAG, the switch fluorescence ratio is reported as 1.11.
Sequence TCCACGGA has a switch fluorescence ratio of 1.06.
TCCACGGAGC gave a switch fluorescence ratio of 1.06.
TCCACTCCGT showed a switch fluorescence ratio of 1.14.
For TCCACTGCTC, the switch fluorescence ratio was 2.13.
For TCCACTGCTG, the switch fluorescence ratio was 1.09.
With TCCACTTGTT the switch fluorescence ratio was 1.01.
TCCAGAACTC gave a switch fluorescence ratio of 1.07.
TCCAGAATTA showed a switch fluorescence ratio of 0.957.
TCCAGAGGAA was tested, and the switch fluorescence ratio was 1.05.
TCCAGCCGGG gave a switch fluorescence ratio of 1.06.
TCCAGCTACC was tested, and the switch fluorescence ratio was 1.34.
Work on TCCAGGCGGG yielded a switch fluorescence ratio of 1.01.
Sequence TCCAGGGCTC has a switch fluorescence ratio of 0.998.
TCCATAAGTT gave a switch fluorescence ratio of 1.01.
Work on TCCATAGACT yielded a switch fluorescence ratio of 1.01.
TCCATAGGCT was tested, and the switch fluorescence ratio was 0.989.
Work on TCCATATGGA yielded a switch fluorescence ratio of 0.928.
For TCCATCATAA, the switch fluorescence ratio was 0.975.
TCCATCGAGC was tested, and the switch fluorescence ratio was 1.02.
TCCATCGCTC gave a switch fluorescence ratio of 3.21.
Sequence TCCATTCTCG has a switch fluorescence ratio of 1.04.
Work on TCCATTGGC yielded a switch fluorescence ratio of 1.03.
Sequence TCCCACTATT has a switch fluorescence ratio of 0.998.
TCCCACTTTT showed a switch fluorescence ratio of 1.02.
For TCCCAGATGG, the switch fluorescence ratio was 1.1.
TCCCATATCC was tested, and the switch fluorescence ratio was 1.09.
Sequence TCCCATTATG has a switch fluorescence ratio of 0.998.
Work on TCCCATTGAA yielded a switch fluorescence ratio of 0.994.
TCCCCAGTAT showed a switch fluorescence ratio of 1.15.
With TCCCCGATCT the switch fluorescence ratio was 1.11.
In the case of TCCCCTCTCG, the switch fluorescence ratio is reported as 1.01.
Work on TCCCGAGGT yielded a switch fluorescence ratio of 1.08.
TCCCGGCTGG was tested, and the switch fluorescence ratio was 0.981.
Sequence TCCCGGGATT has a switch fluorescence ratio of 1.09.
In the case of TCCCGGGCCC, the switch fluorescence ratio is reported as 1.03.
With TCCCGGTCGC the switch fluorescence ratio was 1.02.
With TCCCGTGATT the switch fluorescence ratio was 0.98.
TCCCTCCTTT showed a switch fluorescence ratio of 1.02.
With TCCCTTGTTG the switch fluorescence ratio was 1.05.
In the case of TCCGAAATAG, the switch fluorescence ratio is reported as 4.54.
TCCGAATAGT gave a switch fluorescence ratio of 1.29.
In the case of TCCGATCTTG, the switch fluorescence ratio is reported as 1.18.
In the case of TCCGATGTAT, the switch fluorescence ratio is reported as 1.07.
Sequence TCCGATTTTG has a switch fluorescence ratio of 0.998.
TCCGCACCGG showed a switch fluorescence ratio of 1.29.
With TCCGCCACCG the switch fluorescence ratio was 1.47.
For TCCGCCGCTG, the switch fluorescence ratio was 2.31.
Work on TCCGCCTAGG yielded a switch fluorescence ratio of 1.15.
Work on TCCGCCTCGG yielded a switch fluorescence ratio of 1.02.
TCCGCCTGTT gave a switch fluorescence ratio of 1.12.
Work on TCCGCGCCTT yielded a switch fluorescence ratio of 1.53.
With TCCGCTGGTA the switch fluorescence ratio was 1.18.
TCCGGACAAA gave a switch fluorescence ratio of 1.05.
TCCGGAGGAA was tested, and the switch fluorescence ratio was 1.62.
For TCCGGGTTAG, the switch fluorescence ratio was 1.07.
TCCGGTATTC was tested, and the switch fluorescence ratio was 1.42.
TCCGGTTCAC gave a switch fluorescence ratio of 1.21.
For TCCGTAACGT, the switch fluorescence ratio was 1.09.
In the case of TCCGTTCATC, the switch fluorescence ratio is reported as 1.17.
With TCCTAAAACA the switch fluorescence ratio was 0.958.
With TCCTAAAAGG the switch fluorescence ratio was 0.988.
TCCTAAAGTT gave a switch fluorescence ratio of 0.984.
In the case of TCCTAACAGC, the switch fluorescence ratio is reported as 1.09.
Work on TCCTAGGAGA yielded a switch fluorescence ratio of 1.02.
TCCTAGTGAG showed a switch fluorescence ratio of 0.979.
TCCTCACGGA showed a switch fluorescence ratio of 1.04.
With TCCTCGTTG the switch fluorescence ratio was 1.
Work on TCCTCTTGGC yielded a switch fluorescence ratio of 1.21.
TCCTGAGGTT showed a switch fluorescence ratio of 1.01.
TCCTGAGTAG was tested, and the switch fluorescence ratio was 1.01.
TCCTGCAAA was tested, and the switch fluorescence ratio was 1.95.
TCCTGCAAC was tested, and the switch fluorescence ratio was 1.48.
TCCTGCTGTC gave a switch fluorescence ratio of 1.24.
TCCTGCTTTA was tested, and the switch fluorescence ratio was 0.985.
TCCTGGTTGC gave a switch fluorescence ratio of 1.06.
For TCCTGTAATG, the switch fluorescence ratio was 1.02.
TCCTGTAGAC showed a switch fluorescence ratio of 1.32.
TCCTGTGGGG was tested, and the switch fluorescence ratio was 0.986.
TCCTTAAACC was tested, and the switch fluorescence ratio was 1.08.
TCCTTATAGA gave a switch fluorescence ratio of 1.02.
In the case of TCCTTGAGAC, the switch fluorescence ratio is reported as 1.21.
TCCTTGTATA gave a switch fluorescence ratio of 1.06.
TCCTTTTCGG was tested, and the switch fluorescence ratio was 0.994.
TCGAAACTCG gave a switch fluorescence ratio of 1.08.
TCGAAAGAGG was tested, and the switch fluorescence ratio was 1.04.
For TCGAAATTGC, the switch fluorescence ratio was 1.15.
In the case of TCGAACGAAC, the switch fluorescence ratio is reported as 1.23.
TCGAACTAAA showed a switch fluorescence ratio of 1.03.
Sequence TCGAACTTGC has a switch fluorescence ratio of 1.11.
For TCGAAGCCGT, the switch fluorescence ratio was 1.02.
TCGAAGTAAC was tested, and the switch fluorescence ratio was 1.56.
With TCGAATTGTT the switch fluorescence ratio was 1.
Sequence TCGACACAAA has a switch fluorescence ratio of 1.53.
With TCGACCGATG the switch fluorescence ratio was 1.01.
TCGACGACAC showed a switch fluorescence ratio of 2.59.
TCGACTAAAT was tested, and the switch fluorescence ratio was 1.12.
In the case of TCGACTAAGG, the switch fluorescence ratio is reported as 0.999.
Sequence TCGACTGCGA has a switch fluorescence ratio of 2.43.
TCGACTTTCC was tested, and the switch fluorescence ratio was 1.74.
TCGAGAACGG was tested, and the switch fluorescence ratio was 0.981.
In the case of TCGAGAACTG, the switch fluorescence ratio is reported as 1.09.
TCGAGACTTT gave a switch fluorescence ratio of 0.964.
Work on TCGAGAGCTG yielded a switch fluorescence ratio of 1.03.
TCGAGAGGAG was tested, and the switch fluorescence ratio was 1.02.
With TCGAGCGCGA the switch fluorescence ratio was 1.01.
TCGAGGCGGT was tested, and the switch fluorescence ratio was 1.12.
Work on TCGAGGGTCG yielded a switch fluorescence ratio of 0.999.
In the case of TCGAGTAGGT, the switch fluorescence ratio is reported as 0.969.
Work on TCGATACAG yielded a switch fluorescence ratio of 1.06.
TCGATCTGCC was tested, and the switch fluorescence ratio was 1.05.
Sequence TCGATGACAG has a switch fluorescence ratio of 0.967.
Sequence TCGATGAGCT has a switch fluorescence ratio of 1.03.
TCGATGATTG was tested, and the switch fluorescence ratio was 0.991.
TCGATGCTTG showed a switch fluorescence ratio of 1.01.
In the case of TCGATTAAA, the switch fluorescence ratio is reported as 0.995.
TCGATTACCT showed a switch fluorescence ratio of 1.21.
TCGATTATGA was tested, and the switch fluorescence ratio was 1.01.
In the case of TCGATTTTGC, the switch fluorescence ratio is reported as 1.05.
With TCGCAATTTA the switch fluorescence ratio was 4.04.
TCGCAGGTTG showed a switch fluorescence ratio of 1.02.
TCGCATAGTA showed a switch fluorescence ratio of 1.03.
TCGCATCTGT was tested, and the switch fluorescence ratio was 1.05.
TCGCATTCCT showed a switch fluorescence ratio of 1.63.
With TCGCCAGGGA the switch fluorescence ratio was 1.05.
For TCGCCCCGGG, the switch fluorescence ratio was 1.41.
With TCGCCCTCGT the switch fluorescence ratio was 1.02.
Sequence TCGCCGGGTA has a switch fluorescence ratio of 0.988.
TCGCGA showed a switch fluorescence ratio of 1.07.
With TCGCGAACTG the switch fluorescence ratio was 1.07.
For TCGCGCCGAT, the switch fluorescence ratio was 1.01.
TCGCGCTCCA was tested, and the switch fluorescence ratio was 1.54.
TCGCGGATGC was tested, and the switch fluorescence ratio was 1.4.
TCGCGGGTAT was tested, and the switch fluorescence ratio was 1.01.
In the case of TCGCGGGTCT, the switch fluorescence ratio is reported as 1.06.
With TCGCGGTCAT the switch fluorescence ratio was 1.01.
TCGCGGTTGA was tested, and the switch fluorescence ratio was 1.02.
Work on TCGCTAGTAT yielded a switch fluorescence ratio of 1.05.
Sequence TCGCTGAGTT has a switch fluorescence ratio of 1.03.
TCGCTGGTCG was tested, and the switch fluorescence ratio was 1.01.
TCGCTTAGCC was tested, and the switch fluorescence ratio was 1.05.
In the case of TCGCTTCCGC, the switch fluorescence ratio is reported as 1.38.
In the case of TCGCTTGATT, the switch fluorescence ratio is reported as 1.01.
Work on TCGCTTTGA yielded a switch fluorescence ratio of 1.04.
Work on TCGGAATAAT yielded a switch fluorescence ratio of 1.11.
Work on TCGGACATTA yielded a switch fluorescence ratio of 0.983.
Sequence TCGGACCTG has a switch fluorescence ratio of 1.13.
TCGGACTTAG showed a switch fluorescence ratio of 0.989.
TCGGAGGTCT showed a switch fluorescence ratio of 1.02.
TCGGATACCA was tested, and the switch fluorescence ratio was 1.02.
In the case of TCGGATACG, the switch fluorescence ratio is reported as 1.
Work on TCGGATCTTA yielded a switch fluorescence ratio of 1.01.
Work on TCGGATTGCT yielded a switch fluorescence ratio of 0.951.
Work on TCGGCAATTG yielded a switch fluorescence ratio of 1.01.
With TCGGCCAA the switch fluorescence ratio was 1.05.
Sequence TCGGCCGAGG has a switch fluorescence ratio of 1.02.
TCGGCCGTAG showed a switch fluorescence ratio of 1.32.
With TCGGCCGTGA the switch fluorescence ratio was 1.1.
TCGGCTGGCA gave a switch fluorescence ratio of 1.02.
In the case of TCGGGAAGTT, the switch fluorescence ratio is reported as 1.04.
TCGGGACAAG showed a switch fluorescence ratio of 1.02.
With TCGGGACCGG the switch fluorescence ratio was 0.986.
Work on TCGGGACGGA yielded a switch fluorescence ratio of 1.01.
Work on TCGGGGAACA yielded a switch fluorescence ratio of 1.03.
TCGGGGAG gave a switch fluorescence ratio of 1.
In the case of TCGGGGCTAT, the switch fluorescence ratio is reported as 0.998.
For TCGGGTCAAA, the switch fluorescence ratio was 1.03.
With TCGGGTCGGC the switch fluorescence ratio was 0.969.
For TCGGTACCAT, the switch fluorescence ratio was 1.
Sequence TCGGTATCAA has a switch fluorescence ratio of 0.975.
Work on TCGGTCAATC yielded a switch fluorescence ratio of 1.79.
TCGGTCATT gave a switch fluorescence ratio of 0.951.
TCGGTCCTAT gave a switch fluorescence ratio of 1.01.
With TCGGTCGTTC the switch fluorescence ratio was 1.03.
In the case of TCGGTGGCTA, the switch fluorescence ratio is reported as 0.942.
